According to the RNAGym collection of RNA variant scans (doi:10.7554/elife.90254):
Read counts are not given, so values of variants with three or more changes are uncertain.

B1: OR4K15 (parent)
chain: GUUAACGGUCAUAGGCCAUGGAAACUAGGAGCACCAUUUCGCUGCCAGUGAAGAAAUGAACAAAGAAAAUCUGGGCCAGGCAGGCAUCAAAAGAAAUAGUCUUGCGCUCAACCAGAAAGUCUGUAAUCAUUUUAAGGGUA

Variants of: B1
Experiment: self-cleavage, relative activity (ratio to wild type); higher = more cleavage; in vitro, sequencing; the parent is a self-cleaving ribozyme
A11G A47G A54G A67G showed a self-cleavage of 1.81.
A11G A30U A55G gave a self-cleavage of 0.11.
A11U A18G A24G U100C A111G showed a self-cleavage of 0.18.
With C10A G73A U87C C112U A125G A126G the self-cleavage was 0.
U9C U127C U130C gave a self-cleavage of 0.93.
In the case of U12A A33G A94G, the self-cleavage is reported as 1.55.
A11U U49C U97A showed a self-cleavage of 1.95.
For A11G G44A A59G A64G G83A U87C, the self-cleavage was 1.61.
A11G A33G A66G A90G U122C gave a self-cleavage of 0.44.
A11G U43A A117G showed a self-cleavage of 1.19.
Work on A11G U49G A69G A110U yielded a self-cleavage of 1.13.
A11G A51G A91U U120C gave a self-cleavage of 0.97.
Work on A11U A22G U132C yielded a self-cleavage of 1.33.
Variant U12A A24C A33G C40U A56G A82G has a self-cleavage of 0.43.
With A11G U38C A89G the self-cleavage was 1.07.
Variant A11U U102C U108A A114G A129U has a self-cleavage of 0.
With C10U A11G A47G A51G A62G A129G U130C G137A the self-cleavage was 0.38.
A11G U38C U87C showed a self-cleavage of 0.34.
In the case of A11G A51G A111G, the self-cleavage is reported as 0.3.
Variant A11G U57C A78G has a self-cleavage of 0.32.
For A11U A60G U87A A111G A114U, the self-cleavage was 0.
In the case of A11G U19G A55G A96G, the self-cleavage is reported as 1.68.
Work on A11G A13U A52G yielded a self-cleavage of 1.69.
In the case of A11G A23G U39C U72C, the self-cleavage is reported as 0.19.
A11G C88A A96G A140U showed a self-cleavage of 1.41.
Work on A11G U49G A95U yielded a self-cleavage of 0.4.
U9G A90G A91G A116G U122C showed a self-cleavage of 0.04.
A11G A30G A89U gave a self-cleavage of 1.48.
A11G A47U U103A gave a self-cleavage of 0.44.
A11U G65A A66G A92G showed a self-cleavage of 0.66.
In the case of A11U G31A A60G A89U A125G, the self-cleavage is reported as 0.61.
With A11U A54G A69G the self-cleavage was 1.55.
In the case of U9C U108C A111G, the self-cleavage is reported as 0.02.
In the case of A11C U87C U122C, the self-cleavage is reported as 0.92.
Variant A11C C32U A129U has a self-cleavage of 0.76.
For A11U U87C A110U, the self-cleavage was 0.89.
Work on A11U A91G U100C A126G yielded a self-cleavage of 1.44.
In the case of U9G A64G A96G A111G, the self-cleavage is reported as 0.02.
A11G A69G A111U A117G U122C gave a self-cleavage of 0.05.
A11G A22G U130C U132G showed a self-cleavage of 0.74.
A11C U49C A140G gave a self-cleavage of 1.12.
In the case of A11U A95G U127C G136U, the self-cleavage is reported as 0.92.
A11G A69U U87C gave a self-cleavage of 1.23.
Variant U9C U130C U131C has a self-cleavage of 0.98.
Work on A11G A13G G84U yielded a self-cleavage of 1.47.
For A11G A56G U103A, the self-cleavage was 0.59.
For A11U U49C U87C A91G U122C, the self-cleavage was 0.47.
A11G A23G U72A U108A gave a self-cleavage of 0.04.
Variant A11G A22G U39C U43A U120C has a self-cleavage of 1.18.
U9C U87C U130C gave a self-cleavage of 1.11.
Variant A11U G48A A78G U120C has a self-cleavage of 0.08.
Variant A11G A116G U122C has a self-cleavage of 0.17.
Work on A11U A59G A60U A63G yielded a self-cleavage of 0.43.
C10U A90G U122C showed a self-cleavage of 0.22.
In the case of U12A A24C A63G, the self-cleavage is reported as 1.24.
Work on C10U A60G U103C yielded a self-cleavage of 0.86.
Work on U9C U97C A116G yielded a self-cleavage of 0.44.
With A11G A23U C45U A60G U124A the self-cleavage was 0.82.
With A11G A27U U57C A66G U72A A90U U120C the self-cleavage was 0.17.
For A11G A22G A36G A66G A92G, the self-cleavage was 1.67.
For U9G U26C G28A, the self-cleavage was 1.15.
A11G C46U A117G gave a self-cleavage of 1.79.
Work on A11U A13G A36G A91C yielded a self-cleavage of 1.4.
In the case of A11G A59G G73A, the self-cleavage is reported as 0.07.
A11C A63G A134G gave a self-cleavage of 1.44.
With U9G A13G A96G the self-cleavage was 0.73.
With A11U C35A A62G A98G A110U the self-cleavage was 0.35.
With A11C U49G A60G U97C A111G the self-cleavage was 0.
A11U A67G G106C showed a self-cleavage of 0.01.
A11U A13G A66G U108C showed a self-cleavage of 0.03.
Work on A11G A22G A86U yielded a self-cleavage of 1.31.
With A11U A24U G44A U70C A78G G138A the self-cleavage was 0.26.
Variant A11U C46U A52G A59G A114C has a self-cleavage of 0.01.
For C10U U37C A63G A66G U122C, the self-cleavage was 0.46.
For A11G A13G A62G A117G, the self-cleavage was 1.38.
In the case of U12A A18G A33G A52G A60G, the self-cleavage is reported as 0.62.
For A11G U43C A47G A63U U108C C121A, the self-cleavage was 0.05.
Work on U12A A22U U43C A51G U100A yielded a self-cleavage of 1.02.
Variant A11C A18U A59G has a self-cleavage of 2.33.
A11G U132A A140G showed a self-cleavage of 0.87.
In the case of A11U A51G U122C, the self-cleavage is reported as 1.64.
With A11G A64G U122C the self-cleavage was 0.63.
In the case of A11U C46U U57A U102C, the self-cleavage is reported as 0.79.
U12A A13G A36G G41A U49C A95G showed a self-cleavage of 1.37.
